# Source: the supplement of paper PMC8728848
# This is one part of the list.
# B1: AAL (Agrocybe aegerita), Q6WY08 (protein)
# chain: MQGVNIYNISAGTSVDLAAPVTTGDIVTFFSSALNLNAGAGNPNNTTLNLFAENGAYLLHIAHRLQENVIIFNSRQPDGPWLVEQRVSDVANQFAGIDGKAMVTVFDHGDKYQVVINEKTVIQYTKQISGLTLSLSYNATEETSIFSTVVEAVTYTGLALEHHHHHH
# Assays:
# Assay in all cases: glycan array binding signal (z-score within array); higher = stronger binding
# Details in all cases: glycan notation: IUPAC condensed, linker removed; mutation: F63H
# [1] = target: Gal(b1-4)GlcNAc(b1-3)Gal(b1-4)GlcNAc(b1-3)[Gal(b1-4)GlcNAc(b1-3)Gal(b1-4)GlcNAc(b1-6)]GalNAc
# Procedure, shortened: (§1)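 Glycan array data were curated from 3228 arrays in the Consortium for Functional Glycomics database and kept only where the protein sequence was available. Glycan names were converted to IUPAC-condensed notation, and columns mapping to the same glycan were averaged. The binding signal is a within-array Z-score, averaged across arrays of the same protein sequence at different concentrations or buffers and across linkers. Negative Z-scores can be read as non-binding.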
# [2] = target: Gal(b1-4)GlcNAc(b1-3)Gal(b1-4)GlcNAc(b1-6)[Gal(b1-3)]GalNAc
# Procedure, shortened: as §1
# [3] = target: Gal(b1-4)GlcNAc(b1-3)Gal(b1-4)[Fuc(a1-3)]GlcNAc(b1-3)Gal(b1-4)[Fuc(a1-3)]GlcNAc
# Procedure, shortened: as §1
# [4] = target: Gal(b1-4)GlcNAc(b1-3)GalNAc
# Procedure, shortened: as §1
# [5] = target: Gal(b1-4)GlcNAc(b1-3)[Fuc(a1-3)GlcNAc(b1-6)]Gal(b1-4)Glc
# Procedure, shortened: as §1
# [6] = target: Gal(b1-4)GlcNAc(b1-3)[Gal(b1-4)GlcNAc(b1-6)]Gal(b1-4)GlcNAc
# Procedure, shortened: as §1
# [7] = target: Gal(b1-4)GlcNAc(b1-3)[GlcNAc(b1-6)]Gal(b1-4)GlcNAc
# Procedure, shortened: as §1
# [8] = target: Gal(b1-4)GlcNAc(b1-6)Gal(b1-4)GlcNAc
# Procedure, shortened: as §1
# [9] = target: Gal(b1-4)GlcNAc(b1-6)GalNAc
# Procedure, shortened: as §1
# [10] = target: Gal(b1-4)GlcNAc(b1-6)[Gal(b1-3)]GalNAc
# Procedure, shortened: as §1
# [11] = target: Gal(b1-4)GlcNAc(b1-6)[Gal(b1-4)GlcNAc(b1-3)]GalNAc
# Procedure, shortened: as §1
# Gal(b1-4)GlcNAc6P = target: Gal(b1-4)GlcNAc6P
# Procedure, shortened: as §1
# Gal(b1-6)Gal = target: Gal(b1-6)Gal
# Procedure, shortened: as §1
# Gal3S(b1-3)GalNAc = target: Gal3S(b1-3)GalNAc
# Procedure, shortened: as §1
# Gal3S(b1-3)GlcNAc = target: Gal3S(b1-3)GlcNAc
# Procedure, shortened: as §1
# [12] = target: Gal3S(b1-3)[Fuc(a1-4)]GlcNAc
# Procedure, shortened: as §1
# Gal3S(b1-4)Glc = target: Gal3S(b1-4)Glc
# Procedure, shortened: as §1
# Gal3S(b1-4)Glc6S = target: Gal3S(b1-4)Glc6S
# Procedure, shortened: as §1
# Gal3S(b1-4)GlcNAc = target: Gal3S(b1-4)GlcNAc
# Procedure, shortened: as §1
# [13] = target: Gal3S(b1-4)[Fuc(a1-3)]Glc6S
# Procedure, shortened: as §1
# [14] = target: Gal3S(b1-4)[Fuc(a1-3)]GlcNAc
# Procedure, shortened: as §1
# [15] = target: Gal3S(b1-4)[Fuc(a1-3)]GlcNAc6S
# Procedure, shortened: as §1
# Gal3S4S(b1-4)GlcNAc = target: Gal3S4S(b1-4)GlcNAc
# Procedure, shortened: as §1
# Gal3S6S(b1-4)GlcNAc = target: Gal3S6S(b1-4)GlcNAc
# Procedure, shortened: as §1
# Gal3S6S(b1-4)GlcNAc6S = target: Gal3S6S(b1-4)GlcNAc6S
# Procedure, shortened: as §1
# Gal4S(b1-4)GlcNAc = target: Gal4S(b1-4)GlcNAc
# Procedure, shortened: as §1
# Gal4S6S(b1-4)GlcNAc = target: Gal4S6S(b1-4)GlcNAc
# Procedure, shortened: as §1
# Gal6P(b1-4)GlcNAc = target: Gal6P(b1-4)GlcNAc
# Procedure, shortened: as §1
# Gal6S(b1-3)GlcNAc = target: Gal6S(b1-3)GlcNAc
# Procedure, shortened: as §1
# Gal6S(b1-3)GlcNAc6S = target: Gal6S(b1-3)GlcNAc6S
# Procedure, shortened: as §1
# Gal6S(b1-4)Glc = target: Gal6S(b1-4)Glc
# Procedure, shortened: as §1
# Gal6S(b1-4)Glc6S = target: Gal6S(b1-4)Glc6S
# Procedure, shortened: as §1
# Gal6S(b1-4)GlcNAc = target: Gal6S(b1-4)GlcNAc
# Procedure, shortened: as §1
# Gal6S(b1-4)GlcNAc6S = target: Gal6S(b1-4)GlcNAc6S
# Procedure, shortened: as §1
# GalNAc(a1-3)Gal = target: GalNAc(a1-3)Gal
# Procedure, shortened: as §1
# GalNAc(a1-3)GalNAc = target: GalNAc(a1-3)GalNAc
# Procedure, shortened: as §1
# [16] = target: GalNAc(a1-3)GalNAc(b1-3)Gal(a1-4)Gal(b1-4)Glc
# Procedure, shortened: as §1
# [17] = target: GalNAc(a1-3)GalNAc(b1-3)Gal(a1-4)Gal(b1-4)GlcNAc
# Procedure, shortened: as §1
# GalNAc(b1-3)Gal = target: GalNAc(b1-3)Gal
# Procedure, shortened: as §1
# [18] = target: GalNAc(b1-3)Gal(a1-4)Gal(b1-4)GlcNAc
# Procedure, shortened: as §1
# [19] = target: GalNAc(b1-3)Gal(a1-4)Gal(b1-4)GlcNAc(b1-3)Gal(b1-4)Glc
# Procedure, shortened: as §1
# [20] = target: GalNAc(b1-3)Gal(a1-6)Gal(b1-4)Glc
# Procedure, shortened: as §1
# GalNAc(b1-3)GalNAc = target: GalNAc(b1-3)GalNAc
# Procedure, shortened: as §1
# GalNAc(b1-3)GlcNAc = target: GalNAc(b1-3)GlcNAc
# Procedure, shortened: as §1
# GalNAc(b1-4)Gal(b1-4)Glc = target: GalNAc(b1-4)Gal(b1-4)Glc
# Procedure, shortened: as §1
binder,measurement,setting,value
B1,glycan array binding signal (z-score),[1],0.226
same,glycan array binding signal (z-score),[2],-0.777
same,glycan array binding signal (z-score),[3],0.354
same,glycan array binding signal (z-score),[4],-0.105
same,glycan array binding signal (z-score),[5],-0.308
same,glycan array binding signal (z-score),[6],0.113
same,glycan array binding signal (z-score),[7],-0.344
same,glycan array binding signal (z-score),[8],-0.305
same,glycan array binding signal (z-score),[9],-0.051
same,glycan array binding signal (z-score),[10],0.187
same,glycan array binding signal (z-score),[11],-0.175
same,glycan array binding signal (z-score),Gal(b1-4)GlcNAc6P,0.049
same,glycan array binding signal (z-score),Gal(b1-6)Gal,-0.264
same,glycan array binding signal (z-score),Gal3S(b1-3)GalNAc,-0.302
same,glycan array binding signal (z-score),Gal3S(b1-3)GlcNAc,-0.185
same,glycan array binding signal (z-score),[12],-0.366
same,glycan array binding signal (z-score),Gal3S(b1-4)Glc,0.114
same,glycan array binding signal (z-score),Gal3S(b1-4)Glc6S,0.157
same,glycan array binding signal (z-score),Gal3S(b1-4)GlcNAc,-0.435
same,glycan array binding signal (z-score),[13],0.621
same,glycan array binding signal (z-score),[14],0.004
same,glycan array binding signal (z-score),[15],0.23
same,glycan array binding signal (z-score),Gal3S4S(b1-4)GlcNAc,-0.442
same,glycan array binding signal (z-score),Gal3S6S(b1-4)GlcNAc,0.373
same,glycan array binding signal (z-score),Gal3S6S(b1-4)GlcNAc6S,0.234
same,glycan array binding signal (z-score),Gal4S(b1-4)GlcNAc,-0.569
same,glycan array binding signal (z-score),Gal4S6S(b1-4)GlcNAc,0.214
same,glycan array binding signal (z-score),Gal6P(b1-4)GlcNAc,-0.047
same,glycan array binding signal (z-score),Gal6S(b1-3)GlcNAc,0.062
same,glycan array binding signal (z-score),Gal6S(b1-3)GlcNAc6S,-0.041
same,glycan array binding signal (z-score),Gal6S(b1-4)Glc,0.11
same,glycan array binding signal (z-score),Gal6S(b1-4)Glc6S,0.037
same,glycan array binding signal (z-score),Gal6S(b1-4)GlcNAc,-0.062
same,glycan array binding signal (z-score),Gal6S(b1-4)GlcNAc6S,0.152
same,glycan array binding signal (z-score),GalNAc(a1-3)Gal,-0.08
same,glycan array binding signal (z-score),GalNAc(a1-3)GalNAc,-0.062
same,glycan array binding signal (z-score),[16],0.167
same,glycan array binding signal (z-score),[17],-0.194
same,glycan array binding signal (z-score),GalNAc(b1-3)Gal,-0.032
same,glycan array binding signal (z-score),[18],0.48
same,glycan array binding signal (z-score),[19],-0.28
same,glycan array binding signal (z-score),[20],0.457
same,glycan array binding signal (z-score),GalNAc(b1-3)GalNAc,-0.564
same,glycan array binding signal (z-score),GalNAc(b1-3)GlcNAc,-0.08
same,glycan array binding signal (z-score),GalNAc(b1-4)Gal(b1-4)Glc,0.241
